Measured values as given in the supplement of paper PMC3722116.
Growth of fresh clinical P. falciparum isolates by hypoxanthine uptake over 42 h; for most isolates 1.6-1,647 nM mefloquine, 0.044-87 nM artesunate, 10-10,256 nM chloroquine, 2.4-236 nM lumefantrine. EC50, lower = more sensitive; slope from the same fit, higher = steeper. No active / inactive call. Fits with a coefficient of variation above 100% are not listed here; 15-28% of fits exceed 15%. Isolates are numbered anew.

How the values were obtained:
[1] = compound: T1, CCCCN(CCCC)CC(O)c1cc(Cl)cc2c1-c1ccc(Cl)cc1/C2=C/c1ccc(Cl)cc1 [lumefantrine]
Protocol: (§1)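 Hypoxanthine uptake by fresh isolates, duplicate serial dilutions, 24 h of drug plus 18 h after the label; sigmoid fit per isolate.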

[2] = compound: T2, CCN(CC)CCCC(C)Nc1ccnc2cc(Cl)ccc12 [chloroquine]
Protocol: as §1

[3] = compound: T3, C[C@H]1[C@H](OC(=O)CCC(=O)O)O[C@@H]2O[C@@]3(C)CC[C@H]4[C@H](C)CC[C@@H]1[C@@]24OO3 [artesunate]
Protocol: as §1

[4] = compound: T4, OC(c1cc(C(F)(F)F)nc2c(C(F)(F)F)cccc12)C1CCCCN1 [mefloquine]
Protocol: as §1

[5] = compound: T1, lumefantrine; assay: slope of the dose-response curve (dimensionless); higher = steeper concentration-effect curve
Protocol: as §1

[6] = compound: T2, chloroquine; assay: as above
Protocol: as §1

[7] = compound: T3, artesunate; assay: as above
Protocol: as §1

[8] = compound: T4, mefloquine; assay: as above
Protocol: as §1

Test System | EC50 of parasite growth [1] [µg/mL] | EC50 of parasite growth [2] [µg/mL] | EC50 of parasite growth [3] [µg/mL] | EC50 of parasite growth [4] [µg/mL] | slope [5] | slope [6] | slope [7] | slope [8]
Plasmodium falciparum isolate 36 (pfmdr1 allele: 86N, 1042N, pfmdr1 copies: 3) | 0.00851 | 0.165 | 0.000484 | 0.0312 | 2.12 | 2.33 | 2.72 | 2.36
Plasmodium falciparum isolate 169 (pfmdr1 allele: 86N, 1042N, pfmdr1 copies: 2) | 0.0457 | 0.0709 | 0.0011 | 0.0725 | 3.45 | 3.61 | 5.39 | 2.73
Plasmodium falciparum isolate 335 (pfmdr1 allele: 86N, 1042N, pfmdr1 copies: 1) | 0.0124 | 0.208 | 0.000834 | 0.0164 | 1.94 | 5.45 | 3.65 | 2.24
Plasmodium falciparum isolate 439 (pfmdr1 allele: 86N, 1042N, pfmdr1 copies: 1) | 0.051 | 0.116 | 0.00148 | 0.0529 | 2.91 | 2.97 | 10 | 4.98
Plasmodium falciparum isolate 445 (pfmdr1 allele: 86N, 1042N, pfmdr1 copies: 3) | 0.0274 | 0.032 | 0.000785 | 0.0529 | 2.86 | 2.37 | 5.82 | 4.26
Plasmodium falciparum isolate 373 (pfmdr1 allele: 86N, 1042N, pfmdr1 copies: 1) | 0.014 | 0.193 | 0.000459 | 0.0293 | 1.86 | 4.75 | 6.09 | 2.55
Plasmodium falciparum isolate 101 (pfmdr1 allele: 86N, 1042N, pfmdr1 copies: 2) | 0.0226 | 0.0967 | 0.00449 | 0.0555 | 3.36 | 4.99 | 4.53 | 3.72
Plasmodium falciparum isolate 290 (pfmdr1 allele: 86N, 1042N, pfmdr1 copies: 1) | 0.00164 | 0.0595 | 0.000173 | 0.00554 | 2.07 | 3.32 | 1.93 | 1.49
Plasmodium falciparum isolate 239 (pfmdr1 allele: 86Y, pfmdr1 copies: 1) | 0.00858 | 0.172 | 0.000362 | 0.00634 | 2.28 | 6.59 | 5.28 | 2.73
Plasmodium falciparum isolate 68 (pfmdr1 allele: 1042D, pfmdr1 copies: 1) | 0.00337 | 0.337 | 0.000488 | 0.00199 | 1.41 | 10 | 2.47 | 1.18
Plasmodium falciparum isolate 7 (pfmdr1 allele: 86Y, pfmdr1 copies: 1) | 0.00346 | 0.101 | 0.000572 | 0.00354 | 1.57 | 1.91 | 4.93 | 1.86
Plasmodium falciparum isolate 197 (pfmdr1 allele: 86N, 1042N, pfmdr1 copies: 1) | 0.0147 | 0.181 | 0.000539 | 0.0271 | 2.46 | 6.06 | 5.37 | 3.65
Plasmodium falciparum isolate 375 (pfmdr1 allele: 86N, 1042N, pfmdr1 copies: 2) | 0.0355 | 0.0909 | 0.00058 | 0.0565 | 1.74 | 3.74 | 6.38 | 1.97
Plasmodium falciparum isolate 317 (pfmdr1 allele: 86N, 1042N, pfmdr1 copies: 2) | 0.0273 | 0.0365 | 0.00199 | 0.0522 | 2.9 | 2 | 10 | 4.11
Plasmodium falciparum isolate 306 (pfmdr1 allele: 86N, 1042N, pfmdr1 copies: 2) | 0.0192 | 0.17 | 0.000961 | 0.0602 | 1.91 | 3.04 | 4.81 | 2.34
Plasmodium falciparum isolate 370 (pfmdr1 allele: 86N, 1042N, pfmdr1 copies: 1) | 0.00981 | 0.186 | 0.000211 | 0.0145 | 1.73 | 4.39 | 3.14 | 1.71
Plasmodium falciparum isolate 184 (pfmdr1 allele: 86N, 1042N, pfmdr1 copies: 2) | 0.0562 | 0.205 | 0.00133 | 0.0786 | 2.56 | 5.65 | 9.97 | 5.46
Plasmodium falciparum isolate 332 (pfmdr1 allele: 86N, 1042N, pfmdr1 copies: 1) | 0.0429 | 0.151 | 0.00249 | 0.0384 | 2 | 3.98 | 5.19 | 3.89
Plasmodium falciparum isolate 235 (pfmdr1 allele: 86N, 1042N, pfmdr1 copies: 1) | 0.0156 | 0.0989 | 0.000633 | 0.0269 | 1.89 | 5.09 | 6.13 | 3.04
Plasmodium falciparum isolate 111 (pfmdr1 allele: 86N, 1042N, pfmdr1 copies: 1) | 0.0285 | 0.0984 | 0.00112 | 0.0134 | 2.19 | 4.45 | 4.37 | 2.01
Plasmodium falciparum isolate 388 (pfmdr1 allele: 1042D, pfmdr1 copies: 1) | 0.017 | 0.112 | 0.000474 | 0.0222 | 3.11 | 4.45 | 5.11 | 2.58

Test System | EC50 of parasite growth [1] [µg/mL] | EC50 of parasite growth [2] [µg/mL] | EC50 of parasite growth [3] [µg/mL] | EC50 of parasite growth [4] [µg/mL] | slope [5] | slope [6] | slope [7] | slope [8]
Plasmodium falciparum isolate 363 (pfmdr1 allele: 86N, 1042N, pfmdr1 copies: 1) | 0.0257 | 0.091 | 0.000913 | 0.0344 | 1.9 | 4.08 | 5.07 | 2.81
Plasmodium falciparum isolate 327 (pfmdr1 allele: 86Y, pfmdr1 copies: 1) | 0.00329 | 0.0776 | 0.000193 | 0.00371 | 2.4 | 3.93 | 3.92 | 2.8
Plasmodium falciparum isolate 337 (pfmdr1 allele: 86N, 1042N, pfmdr1 copies: 2) | 0.0301 | 0.114 | 0.00121 | 0.0448 | 3.67 | 3.24 | 8.58 | 3.51
Plasmodium falciparum isolate 487 (pfmdr1 allele: 86N, 1042N, pfmdr1 copies: 2) | 0.00613 | 0.149 | 0.0004 | 0.017 | 1.85 | 3.28 | 3.75 | 1.86
Plasmodium falciparum isolate 359 (pfmdr1 allele: 86N, 1042N, pfmdr1 copies: 2) | 0.0381 | 0.255 | 0.00333 | 0.0914 | 2.03 | 4 | 5.62 | 3.13
Plasmodium falciparum isolate 247 (pfmdr1 allele: 86N, 1042N, pfmdr1 copies: 2) | 0.0174 | 0.0975 | 0.000543 | 0.0322 | 2.6 | 2.8 | 5.62 | 3.21
Plasmodium falciparum isolate 341 (pfmdr1 allele: 86N, 1042N, pfmdr1 copies: 2) | 0.0751 | 0.0541 | 0.000801 | 0.0755 | 2.67 | 2.56 |  | 2.49
Plasmodium falciparum isolate 157 (pfmdr1 allele: 86N, 1042N, pfmdr1 copies: 1) | 0.0182 | 0.0706 | 0.00106 | 0.0328 | 1.95 | 3.37 | 4.5 | 1.99
Plasmodium falciparum isolate 182 (pfmdr1 allele: 86N, 1042N, pfmdr1 copies: 1) | 0.0175 | 0.195 | 0.0021 | 0.0339 | 1.37 | 6.6 | 10 | 2.71
Plasmodium falciparum isolate 266 (pfmdr1 allele: 86N, 1042N, pfmdr1 copies: 1) | 0.0111 | 0.0606 | 0.000459 | 0.0184 | 2.37 | 6.34 | 7.85 | 2.56
Plasmodium falciparum isolate 58 (pfmdr1 allele: 86N, 1042N, pfmdr1 copies: 2) | 0.0623 | 0.073 | 0.00212 | 0.0664 | 2.49 | 2.8 | 2.85 | 2.94
Plasmodium falciparum isolate 387 (pfmdr1 allele: 86N, 1042N, pfmdr1 copies: 1) | 0.0256 | 0.207 | 0.000292 | 0.0192 | 1.46 | 5.3 | 6.17 | 1.82
Plasmodium falciparum isolate 313 (pfmdr1 allele: 86N, 1042N, pfmdr1 copies: 1) | 0.0214 | 0.0616 | 0.00118 | 0.0283 | 2.08 | 2.59 | 7.41 | 3.65
Plasmodium falciparum isolate 137 (pfmdr1 allele: 86N, 1042N, pfmdr1 copies: 1) | 0.00253 | 0.133 | 0.000265 |  | 1.06 | 1.89 | 2.24 | 
Plasmodium falciparum isolate 418 (pfmdr1 allele: 86N, 1042N, pfmdr1 copies: 1) | 0.00288 | 0.0449 | 0.000107 |  | 1.09 | 2.53 | 1.51 | 
Plasmodium falciparum isolate 461 (pfmdr1 allele: 86N, 1042N, pfmdr1 copies: 1) | 0.0428 | 0.135 | 0.0016 |  | 3.66 | 2.41 | 5.35 | 
Plasmodium falciparum isolate 340 (pfmdr1 allele: 86N, 1042N, pfmdr1 copies: 1) | 0.0278 | 0.0892 |  | 0.0111 | 0.847 | 3.54 |  | 1.86
Plasmodium falciparum isolate 304 (pfmdr1 allele: 86N, 1042N, pfmdr1 copies: 1) | 0.0561 | 0.0973 |  | 0.0475 | 2.11 | 2.78 |  | 3.82
Plasmodium falciparum isolate 339 (pfmdr1 allele: 86N, 1042N, pfmdr1 copies: 1) | 0.0463 | 0.062 |  | 0.0077 | 4.98 | 2.89 |  | 2.19
Plasmodium falciparum isolate 207 (pfmdr1 allele: 86N, 1042N, pfmdr1 copies: 4) | 0.122 | 0.117 |  | 0.136 | 9.98 | 7.51 |  | 5.18
Plasmodium falciparum isolate 431 (pfmdr1 allele: 86N, 1042N, pfmdr1 copies: 3) | 0.0536 | 0.0353 |  | 0.0574 | 2.58 | 2.79 |  | 3.78
